# This is one part of the list. The full chains were built here from the parent and the listed change. Inactive controls read about 0.05.
# B1: TEV protease; numbered along this chain (parent)
# chain: MGESLFKGPRDYNPISSSICHLTNESDGHTTSLYGIGFGPFIITNKHLFRRNNGTLVVQSLHGVFKVKDTTTLQQHLVDGRDMIIIRMPKDFPPFPQKLKFREPQREERICLVTTNFQTKSMSSMVSDTSCTFPSGDGIFWKHWIQTKDGQCGSPLVSTRDGFIVGIHSASNFTNTNNYFTSVPKNFMELLTNQEAQQWVSGWRLNADSVLWGGHKVFMVKPEEPFQPVKEATQL
# Variants of: B1
# Experiment: raw area under fraction-flipped curve 0-4 h after induction (AUC4h, not background-subtracted), DNA-recorder readout of cleavage of the substrate (dimensionless); higher = more cleavage of the substrate by the protease variant
# Conditions: temperature: 34 °C; time window: 0-4 h after rhamnose induction
# Method: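 In vivo DNA recorder in E. coli TOP10(DE3) ΔrhaA at 34 °C. Each TEVp single-site mutant (parent TEVp 0) is paired with a single-site variant of the 7-mer TEVs (canonical ENLYFQ|S). The substrate sits between flexible linkers in a Bxb1-sfGFP-TEVs-SsrA fusion, so cleavage stabilises Bxb1 and speeds flipping of a recombination array, read by NGS. The value is the raw area under the fraction-flipped curve over 0-4 h after rhamnose induction (AUC4h), with ≥20 reads per time point. It is not background-subtracted; inactive controls average about 0.047.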
# 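Note: Bxb1 expression induced with 0.2% (w/v) L-rhamnose at OD600 near 0.5, cultures sampled hourly, flipped fraction per protease–substrate barcode pair counted by paired-end Illumina sequencing.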
Variant,area with substrate ENLYFQC,area with substrate ENLYFQG,area with substrate ENLYFQH,area with substrate ENLYFQI,area with substrate ENLYFQK,area with substrate ENLYFQM,area with substrate ENLYFQN,area with substrate ENLYFQQ,area with substrate ENLYFQR,area with substrate ENLYFQS,area with substrate ENLYFQW,area with substrate ENLYFQY,area with substrate ENLYFQF,area with substrate ENLYFQL,area with substrate ENLYFQT,area with substrate ENLYFQD,area with substrate ENLYFQP,area with substrate ENLYFQV,area with substrate ENLYFQE
H76D,0.0724,0.0674,0.063,0.0483,0.0565,0.0549,0.0625,0.0649,0.0591,0.0669,0.0522,0.0592,–,–,–,–,–,–,–
H76L,0.0964,0.0733,–,0.0618,0.071,–,0.0741,–,–,0.118,0.064,0.0759,0.098,0.0648,0.0702,–,–,–,–
H76M,0.123,0.103,–,0.064,0.0699,0.128,0.0957,0.0817,0.0538,0.103,0.066,0.0798,–,0.0535,0.0723,0.113,0.0404,0.0575,–
F173H,0.107,0.0934,–,0.0607,0.0638,0.0711,0.0642,0.0623,0.0653,0.0883,0.0554,0.0645,0.0789,0.0539,0.0613,0.0659,0.0827,0.0674,0.0584
T70R,0.0579,0.0766,–,0.101,–,0.0745,0.0563,–,0.0556,0.0661,–,0.062,–,0.0638,–,0.0631,–,0.0537,0.0748
F140L,0.0897,–,–,0.0641,0.0549,0.0719,0.0634,0.064,0.0631,0.0876,0.0557,0.0574,–,–,0.0582,–,–,–,–
H143G,0.0984,0.0915,0.101,0.0347,–,0.0768,0.0658,0.0624,0.0504,0.0974,0.0588,0.0697,–,–,0.0487,0.0526,0.0493,–,0.0499
K68Y,0.141,0.113,–,0.077,0.0614,–,–,–,0.0604,0.0945,0.0638,0.0851,–,–,–,–,0.0497,–,–
N175L,0.0917,0.0796,0.0653,0.06,0.0383,0.0567,0.0668,–,0.0592,0.0856,0.051,0.0605,–,0.0473,0.0648,–,0.0526,0.0659,0.0658
I84A,0.0614,0.103,0.0722,0.0434,0.0506,0.0709,–,–,0.0621,0.0787,0.0624,0.0555,–,0.0664,0.0625,–,0.0335,–,–
K100G,0.101,–,0.0792,0.0589,0.0659,0.0849,0.0516,0.0734,0.0521,0.0961,0.0662,0.0708,–,0.063,0.0696,–,0.0717,–,0.0447
Q118Y,0.118,0.0682,0.0793,–,–,–,–,–,0.0571,0.102,–,–,–,–,0.105,–,–,–,–
V67A,0.106,0.063,0.0918,0.0543,–,–,0.0741,0.0689,0.0539,0.0944,0.0654,0.0761,0.0905,0.0552,0.0728,0.0642,–,–,–
